Experimental data as given in paper PMC4336329 (PLoS ONE, 2015).
Out of some 310,000 compounds screened, about 2,200 (0.71%) showed an effect of 50% or more. Effects have a minus sign here. The list shows a part of the results.

The compounds below were run against human ether-à-go-go-related gene (hERG) potassium channel (human, UniProt Q12809) (assay: primary screen, population patch clamp on CHO cells stably expressing hERG).
human ether-à-go-go-related gene (hERG) potassium channel, sequence (Q12809 whole entry, looked up): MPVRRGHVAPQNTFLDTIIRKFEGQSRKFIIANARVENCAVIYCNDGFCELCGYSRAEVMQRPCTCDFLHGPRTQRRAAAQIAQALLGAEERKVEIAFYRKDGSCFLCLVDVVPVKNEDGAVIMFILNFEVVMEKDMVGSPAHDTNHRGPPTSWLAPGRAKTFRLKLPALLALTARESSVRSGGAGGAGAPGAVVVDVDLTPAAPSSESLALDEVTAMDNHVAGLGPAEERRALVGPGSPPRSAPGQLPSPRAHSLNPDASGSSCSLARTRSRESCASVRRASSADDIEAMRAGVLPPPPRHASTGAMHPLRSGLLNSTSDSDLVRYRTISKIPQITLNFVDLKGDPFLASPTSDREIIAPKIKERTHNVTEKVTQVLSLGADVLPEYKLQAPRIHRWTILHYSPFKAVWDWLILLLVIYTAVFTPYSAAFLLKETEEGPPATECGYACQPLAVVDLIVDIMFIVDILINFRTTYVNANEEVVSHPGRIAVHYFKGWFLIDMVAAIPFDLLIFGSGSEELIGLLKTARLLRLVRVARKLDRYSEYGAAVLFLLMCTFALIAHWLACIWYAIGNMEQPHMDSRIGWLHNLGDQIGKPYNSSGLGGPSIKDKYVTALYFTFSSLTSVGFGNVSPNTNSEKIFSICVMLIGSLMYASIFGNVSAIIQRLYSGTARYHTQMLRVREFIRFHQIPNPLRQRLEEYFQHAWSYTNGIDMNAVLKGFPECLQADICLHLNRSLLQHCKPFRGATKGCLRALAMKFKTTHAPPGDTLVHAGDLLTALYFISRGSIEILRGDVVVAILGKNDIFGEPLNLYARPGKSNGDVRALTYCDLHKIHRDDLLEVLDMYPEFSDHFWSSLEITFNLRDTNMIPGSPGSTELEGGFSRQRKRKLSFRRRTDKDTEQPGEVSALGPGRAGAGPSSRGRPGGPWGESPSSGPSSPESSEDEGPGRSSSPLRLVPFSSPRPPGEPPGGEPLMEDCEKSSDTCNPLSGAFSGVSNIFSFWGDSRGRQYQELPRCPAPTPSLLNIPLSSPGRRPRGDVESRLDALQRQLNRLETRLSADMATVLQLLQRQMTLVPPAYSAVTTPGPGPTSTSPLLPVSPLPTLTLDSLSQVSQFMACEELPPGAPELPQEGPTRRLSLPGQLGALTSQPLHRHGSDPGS

Structure (SMILES) | hERG current change (%, negative = inhibition) at 1uM [%]
CC1=CCC(C(=O)O)(C(=O)N/N=C/c2cccs2)C(c2ccc(F)cc2)C1 (stereo not shown) | 0.847
CCc1nnc(NC(=O)CCC(=O)N2CCN(S(=O)(=O)c3ccc(OC)cc3)CC2)s1 | 15.1
O=C(CN1C(=O)CCS(=O)(=O)c2ccccc21)Nc1ccc(F)cc1 | 9.63
CCOC(=O)c1c(CN(CC)CC)oc2cc(Br)c(O)cc12 | -59.5
CN(Cc1cn(C)nc1-c1ccc(Oc2ccccc2)cc1)C1CCOC1 (stereo not shown) | 9.11
CCC(CC)NC(=O)Cc1ccc(F)cc1 | 13
O=C(Nc1ccc(Oc2cccnc2)cc1)C1CCN(Cc2ccccc2)CC1 | -16.1
CC(C)(C)NC(=O)NC(=O)COC(=O)c1cccc(OC(F)F)c1 | 1.51
C=CCSc1nnc(-c2cc3c(s2)-c2ccccc2CC3)o1 | 1.84
Cc1cccc2sc(NC(=O)CN3C(=O)C4CC=CCC4C3=O)nc12 (stereo not shown) | 7.46
COc1cccc(-n2c(=O)c3sccc3n(CC(=O)NCC3CCCO3)c2=O)c1 (stereo not shown) | 12.2
Cc1cc(C)c(CSc2nnnn2-c2ccc(C(=O)O)cc2)c(C)c1 | 9.74
COc1cc(C)c(Cl)cc1S(=O)(=O)N1CCSC1 | 11
N/C(Cc1ccc(Cl)cc1Cl)=N\OC(=O)c1ccc(Br)o1 | 19.5
CN1CCN(C(=O)C2=C[C@H](c3ccc4c(c3)OCO4)C[C@H](OCc3ccc(CO)cc3)O2)CC1 | -17.2
CC(=O)N(C)c1ccc(NC(=O)Nc2ccc(C)c(C)c2)cc1 | 3.57
CC(=O)OCCN(Cc1ccccc1)Cc1ccc2c(c1)OCO2 | 1.68
CCOc1ccc(S(=O)(=O)n2cnc(C)c2)cc1 | 11.7
COc1ccc(NC(=O)CN(C)S(=O)(=O)c2cccc3nsnc23)cc1 | -33.8
COc1ccc(N(CC(=O)Nc2cccc(SC)c2)S(C)(=O)=O)cc1Cl | -7.88
Cc1c(C(=O)NCc2cccnc2)oc2c1C(=O)CC(C)(C)C2 | 5.94
CCOCCCN(C(=O)Cn1nnc(-c2ccc(OC)c(OC)c2)n1)C(CC)C(=O)NC1CCCC1 (stereo not shown) | -0.995

Structure (SMILES) | hERG current change (%, negative = inhibition) at 1uM [%]
COCCc1nnc(NC(=O)C23CC4CC(CC(C4)C2)C3)s1 | 15.9
COc1cc(NC(=O)CN2C3CCC2CC(O)(c2cccnc2)C3)cc(OC)c1 (stereo not shown) | -41.3
C/C(Cl)=C/Cn1c(N2CCCC2)nc2c1c(=O)n(C)c(=O)n2C | 10.5
O=C1NC(=S)N(c2cccc(Cl)c2)C12CCCCC2 | 15.2
CCc1cccc(NC(=O)CSc2nc3c(c(=O)[nH]2)CCCC3)c1 | 16.7
O=C(CSc1nc2ccc(Cl)cc2[nH]1)NCCc1ccccc1 | 10.7
CSc1ccc(C2C(C#N)=C(N)N(c3ccccc3)C3=C2C(=O)CCC3)cc1 (stereo not shown) | 5.55
CC(=O)OCC(OC(C)=O)C(OC(C)=O)C(OC(C)=O)C(=O)Nc1ccc(C)cc1C (stereo not shown) | 2.91
CCC(C)(C)n1nnnc1C(C(C)C)N1CCSCC1 (stereo not shown) | -23.9
CCc1ccc(-n2c(SCC(=O)Nc3cccc(S(=O)(=O)NC4=NCCCCC4)c3)nc3ccccc3c2=O)cc1 | 22
Br.O=C(CN(Cc1ccccc1)C1=NCCS1)c1ccc(Cl)cc1 | 1.83
Cc1ccc(S(=O)(=O)N2CCCCC2)cc1NC(=O)COC(=O)c1ccc(O)cc1 | 7.9
CCCOc1cccc(NC(=O)c2c(-c3ccccc3)noc2C)c1 | 1.02
CCOc1cc(CNCCO)ccc1OCC(=O)NC(C)(C)C.Cl | 12.3
O=C1CC(c2cc(F)ccc2F)c2cc3c(cc2N1)CCC3 (stereo not shown) | 12.4
CC(C)OCCCNC(=O)Cn1ncc2c(=O)oc3ccccc3c21 | -0.0503
O=c1nc2ccccc2c(NS(=O)(=O)c2ccccc2)n1-c1ccccc1 | 9.91
Cc1ccc(-c2nnc(N3CCCCC3)c3ccccc23)cc1S(=O)(=O)N(C)C | -9.21
Cc1cc(C)c(C)c(S(=O)(=O)N2CCC(C(=O)Nc3ccccc3N3CCOCC3)CC2)c1C | 3.1
CCOC(=O)N1CCN(CC(=O)Nc2cc(C)nn2-c2nc3ccccc3s2)CC1 | 2.94
Clc1ccc(OCC#CCN2CCOCC2)cc1.O=C(O)C(=O)O | 14.9
O=C(Cn1cc(/C=N/O)c2ccccc21)N1CCOCC1 | 24.9

Structure (SMILES) | hERG current change (%, negative = inhibition) at 1uM [%]
CC(C)(C)NC(=O)C(c1ccc(O)cc1)N(C(=O)CCC(=O)Nc1nccs1)c1ccc(F)cc1 (stereo not shown) | 7.52
O=C1CCC(C(=O)N2CCCC(N3CCN(c4cccc(C(F)(F)F)c4)CC3)C2)=NN1 (stereo not shown) | -2.4
COc1ccc(-c2cccc([C@H]3[C@@H]4C=CCC[C@@]4(C)C(=O)N3Cc3ccccc3)c2)cc1 | 14.6
Cc1ccc(OS(=O)(=O)c2ccc(N3C(=O)CCC3=O)cc2)cc1 | 18.9
Cl.O=c1[nH]cnc2c1N1CCC2CC1 | 7.71
O=C(OCC(=O)N1CCCCCC1)c1cccs1 | 23.7
COc1ccccc1C(=O)NCCC(=O)Nc1ncccc1C | 17.9
N#CC(C(=O)c1ccccc1)=C1SCCS1 | 12.6
O=C(Cn1nc(C(F)(F)F)c2c1CCC2)NCc1ccc(Cl)cc1 | 13.1
CCOC(=O)Cc1csc(NC(=O)c2cccnc2)n1 | -0.104
CCOC(=O)C(=O)Nc1nc(-c2ccccc2)c(CC)s1 | 5.64
O=C(c1ccc2c(c1)OCCO2)C1CCN(C(=O)Nc2ccccc2F)CC1 | 15.9
O=C1CCc2cc(S(=O)(=O)N3CCN(c4ccccc4F)CC3)ccc2N1 | -4.41
Cc1nn(CC(=O)OCC(=O)Nc2ccccc2[N+](=O)[O-])c(C)c1[N+](=O)[O-] | 7.87
Cc1ccc(N(C(=O)c2snc(C(N)=O)c2N)C(C(=O)NC2CCCC2)c2ccc(C)o2)cc1 (stereo not shown) | 19.2
O=C(CSc1nc2ccccc2s1)Nc1ccc(Cl)c(S(=O)(=O)N2CCOCC2)c1 | 8.31
Cc1cc(C(=O)COC(=O)c2ccc(O)cc2O)c(C)n1-c1ccccc1 | 6.26
CCCCOc1ccc(C2/C(=C(/O)c3ccc4c(c3)CC(C)O4)C(=O)C(=O)N2CCCN2CCOCC2)cc1OC (stereo not shown) | 13.7
Cc1cc(O)cc2c1O[C@@](C)(CCC[C@@H](C)CCC[C@@H](C)CCCC(C)C)CC2 | 2.78
CCCCC(=O)Nc1cccc(-c2cn3ccccc3n2)c1 | 5.7
O=C(NCC1CCCO1)c1ccc(S(=O)(=O)Nc2ccccc2F)cc1 (stereo not shown) | 7.53
COc1ccc(OC)c(N(CC(N)=O)S(=O)(=O)c2ccc(OC)c(OC)c2)c1 | 3.68

Structure (SMILES) | hERG current change (%, negative = inhibition) at 1uM [%]
CCOC(=O)N1CCN(C(=O)c2cn(CC)c3ccc(S(=O)(=O)N4CCC(C)CC4)cc3c2=O)CC1 | 8.03
O=S(=O)(Nc1cccc(-n2cnnn2)c1)c1cc(Br)ccc1Br | 10.3
Cc1nnc(SCC(=O)N2CCN(S(=O)(=O)c3ccccc3)CC2)n1Cc1ccccc1 | 11.2
Cn1c(CN2CCCC2)nc2cc(NS(=O)(=O)c3ccc(Cl)cc3)ccc21 | -31
Cc1ccc(-c2cc([C@H]3[C@H]4C=CC[C@@H](C)[C@@H]4C(=O)N3Cc3ccccc3)ccc2F)cc1 | 13.3
COc1ccc(S(=O)(=O)N/N=C\c2ccc(OC)c(COc3ccc(C)cc3[N+](=O)[O-])c2)cc1 | 7.57
CC(=O)Nc1ccc(NC(=O)c2sc(-c3ccccc3)nc2C)cc1 | 14
CCOC(=O)c1cnc2c(C(=O)OC)cccc2c1NCc1cccnc1 | -55.5
O=C(Nc1ccc(-c2csnn2)cc1)C(Cl)(Cl)Cl | 11
CC(=O)NCCc1ccc(S(=O)(=O)Nc2ccc(NC(=O)c3ccc(F)cc3)cc2)cc1 | 11.5
COc1cc(NC(=O)CSCc2ccccc2)c(C(=O)O)cc1OC | 11.7
Cc1ccc2[nH]c(=O)c(CN(Cc3ccccc3Cl)C(=O)N3CCOCC3)cc2c1 | -23.5
O=C1CC(N2CCC(O)(c3ccc(Cl)cc3)CC2)C(=O)N1Cc1ccc(N2CCCC2=O)cc1 (stereo not shown) | 6.35
Cc1ccc(C(=O)N/N=C\c2cccnc2)s1 | 12.2
O=C1c2cc(O)cc(O)c2C(=O)c2c1cc(O)c([C@@H](CO)CCO)c2O | 23
O=C(CN(C(=O)CNS(=O)(=O)c1ccc(F)cc1)c1cccc(F)c1)NCC1CCCO1 (stereo not shown) | 16.3
CNCCC(=O)N1c2ccccc2CCc2ccc(NC(=O)OC)cc21.Cl | 17.9
O=C(CSc1ncccn1)Nc1cccc2ccccc12 | 10.1
COc1ccccc1CCNC(=O)C(=O)NCCC1CCCCN1S(=O)(=O)c1cccs1 (stereo not shown) | 7.24
